Source: publication PMC4336329 (PLoS ONE, 2015)
The campaign covered roughly 310,000 compounds. About 14,000 (4.5%) showed an effect of 50% or more. The effect is printed as a negative number. The list shows a part of the results.

What follows are molecules tested against human ether-à-go-go-related gene (hERG) potassium channel (human, UniProt Q12809) (assay: primary screen, population patch clamp on CHO cells stably expressing hERG).
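Also: peak tail current of the secondary pulse compared with the same well before compound.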

Chain of human ether-à-go-go-related gene (hERG) potassium channel (Q12809 whole entry, looked up): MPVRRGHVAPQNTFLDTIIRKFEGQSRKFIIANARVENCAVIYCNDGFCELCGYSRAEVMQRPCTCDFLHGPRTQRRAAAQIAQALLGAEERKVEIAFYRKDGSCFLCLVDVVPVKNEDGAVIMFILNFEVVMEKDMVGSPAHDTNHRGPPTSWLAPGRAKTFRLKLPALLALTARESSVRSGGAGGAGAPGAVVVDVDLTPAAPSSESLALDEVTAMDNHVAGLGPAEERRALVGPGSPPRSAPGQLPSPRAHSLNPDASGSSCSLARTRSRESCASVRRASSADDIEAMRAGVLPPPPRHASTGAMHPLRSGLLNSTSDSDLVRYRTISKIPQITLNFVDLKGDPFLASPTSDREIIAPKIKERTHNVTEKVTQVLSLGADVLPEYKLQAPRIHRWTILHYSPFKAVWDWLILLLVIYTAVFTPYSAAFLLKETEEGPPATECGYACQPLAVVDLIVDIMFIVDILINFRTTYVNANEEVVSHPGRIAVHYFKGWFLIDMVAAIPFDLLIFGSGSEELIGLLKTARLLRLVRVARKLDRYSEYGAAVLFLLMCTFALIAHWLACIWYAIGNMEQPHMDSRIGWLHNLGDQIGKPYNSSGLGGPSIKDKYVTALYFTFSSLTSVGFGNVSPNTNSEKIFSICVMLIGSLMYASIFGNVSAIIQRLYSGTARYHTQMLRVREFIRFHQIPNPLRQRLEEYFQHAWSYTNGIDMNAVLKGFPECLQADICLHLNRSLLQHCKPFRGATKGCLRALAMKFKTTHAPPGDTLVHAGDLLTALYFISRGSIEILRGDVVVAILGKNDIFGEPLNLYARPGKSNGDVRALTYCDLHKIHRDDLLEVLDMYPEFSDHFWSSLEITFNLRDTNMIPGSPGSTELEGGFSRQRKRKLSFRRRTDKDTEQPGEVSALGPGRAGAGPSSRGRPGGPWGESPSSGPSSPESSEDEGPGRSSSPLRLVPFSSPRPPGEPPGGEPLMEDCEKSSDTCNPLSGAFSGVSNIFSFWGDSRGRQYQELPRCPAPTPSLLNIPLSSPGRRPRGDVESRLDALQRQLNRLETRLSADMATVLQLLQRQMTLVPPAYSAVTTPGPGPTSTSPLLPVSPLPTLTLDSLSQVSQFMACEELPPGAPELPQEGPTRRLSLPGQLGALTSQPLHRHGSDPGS

| SMILES | hERG current change (%, negative = inhibition) at 10uM [%] |
| --- | --- |
| Cc1c(Cl)cccc1Nc1ccccc1C(=O)O | 16.6 |
| COc1ccc(CCNC(=O)C2CCCN(S(=O)(=O)c3cccc4nonc34)C2)cc1OC (stereo not drawn) | 10.5 |
| CCOc1ccccc1C(=O)NCC(=O)OCC(=O)c1ccc2c(c1)OCCO2 | -3.13 |
| O=C(O)c1cc(N/N=C/c2ccc3c(c2)OCO3)ccc1Cl | 15.1 |
| O=C(Nc1cc(Cl)ccc1N1CCCC1)C1=COCCO1 | -6.1 |
| CCCCNC(=O)COC(=O)CCC(=O)c1ccc(F)cc1 | 5.12 |
| c1cnc(Oc2ccc(-c3nnco3)cc2)cn1 | 13.6 |
| CC(=O)Oc1ccc(-n2c(=O)c3ccccc3c3ccccc3c2=O)cc1 | 8.43 |
| O=C(NCCCN1CCCCC1)c1ccc2c(c1)NC(=O)C(N1CCCCC1)S2 (stereo not drawn) | 11 |
| CCOC(=O)Cn1c(=O)n(CC(=O)OCC)c2ccccc21 | 12.3 |
| CCCc1nc2ccccc2c(=O)n1NC(=O)c1c(O)c2ccccc2n(C)c1=O | 5.64 |
| Cc1ccc(NC(=O)CSCC(=O)O)cc1 | 39.6 |
| Cn1c(N)c(C(=O)N/N=C/c2ccccc2)sc1=S | 19.6 |
| COc1ccc(NC(=O)CS(=O)(=O)c2cn(CC(=O)N(C(C)C)C(C)C)c3ccccc23)c(OC)c1 | -19.3 |
| Cc1ccc(C2(C)NC(=O)N(CC(=O)NCc3ccccc3Cl)C2=O)cc1 (stereo not drawn) | 9.54 |
| O=C(O)COCC(=O)Nc1ccc2c(c1)oc1ccccc12 | 13.5 |
| CC(C)Oc1ccc(S(=O)(=O)N2CCCCC2)cc1NC(=O)CN1C(=O)NC(C)(C2CC2)C1=O (stereo not drawn) | -33.1 |
| Cc1ccc(S(=O)(=O)N2CCN(C(=O)CC(C)(C)C)CC2)cc1 | 4.97 |
| CC(=O)c1cccc(Nc2nc(=O)c3cccnc3s2)c1 | -3.05 |
| CC(C)(C)NC(=O)C(c1ccco1)N(C(=O)c1ccc(CN2CCOCC2)o1)c1ccccc1 (stereo not drawn) | -3.79 |
| O=C(Cc1ccccc1)OCCNC(=O)c1ccc[nH+]c1.[Cl-] | -2.47 |
| O=C1C(=Nc2cccc(Cl)c2)CC(c2ccc(Cl)cc2)N1c1cccc(Cl)c1 (stereo not drawn) | 10.4 |
| O=C(NCCCN1CCOCC1)c1ccc(Sc2ccccc2Cl)c([N+](=O)[O-])c1 | -22.7 |
| Cc1cc(C)cc(NC(=O)CSc2nnc(-c3ccncc3)o2)c1 | -22.8 |
